Experimental data from patent US20150051171A1, “TETRAZOLINONE COMPOUNDS AND ITS USE AS PESTICIDES” (SUMITOMO CHEMICAL COMPANY, LIMITED, priority 2012, published 2015).

Legend:
Test in all cases: whole plant or invertebrate
[1] = test system: German cockroach (Blattella germanica); conditions: 144 h, read-out: mortality of insects
Protocol: The testing drug solutions to be used in this Test example were prepared by diluting the formulations prepared according to the above-mentioned Formulation examples with an ion-exchange water so that the active ingredient concentration was set to 500 ppm.
A bottom of a polyethylene cup having 5.5 cm of diameter was lain with filter paper with the same size as the bottom and thereto was added dropwise the above-mentioned testing solutions 0.7 mL onto the filter paper and sucrose 30 mg as feed was placed uniformly thereon. Two (2) heads of male German cockroach (Blattella germanica) were released into the polyethylene cup and the cup was covered with the lid. After 6 days, the life and death of the insects of the German cockroach was observed.

[2] = test system: cabbage moth (Plutella xylostella); conditions: 120 h, read-out: mortality of insects
Protocol: The testing drug solutions to be used in this Test example were prepared by diluting the formulations prepared according to the above-mentioned Formulation examples with an ion-exchange water so that the active ingredient concentration was set to 500 ppm. Cabbage (green ball) was planted in a polyethylene cup and was grown until the third true leaf or the fourth true leaf was developed. To the cabbage (Brassicae oleracea) was spread the above-mentioned testing solutions in a ratio of 20 mL/cup. After the drug solutions were dried, to a polyethylene cup (diameter 5.5 cm) covered with a filter paper on the bottom, the cabbage cut out from the root was installed and five heads of cabbage moth (Plutella xylostella) at the three instar larval stages were released into the cup and the cup was covered with the lid. The cup was held at 25° C. and after 5 days, the number of the surviving insects was counted and the mortality of insects was calculated by the following equation.
(§1) Mortality of insects(%)=(Number of dead insects/Number of tested insects)×100

[3] = test system: common house mosquito (Culex pipiens pallens); conditions: 192 h, read-out: mortality of insects
Protocol: The testing drug solutions to be used in this Test example were prepared by diluting the formulations prepared according to the above-mentioned Formulation examples with an ion-exchange water so that the active ingredient concentration was set to 500 ppm. The above-mentioned drug solutions 0.7 mL were added to an ion-exchange water 100 mL so that the active ingredient concentration was set to 3.5 ppm. Twenty (20) last instar larvae of common house mosquito (Culex pipiens pallens) were released into the solutions and after 8 day, the number of the dead insects was counted.
The mortality of insects was calculated by the following equation.
as §1

Compound	mortality at 500 ppm [1]	mortality at 500 ppm [2]	mortality at 3.5 ppm [3]
Cc1ccccc1-n1ccc(OCc2c(C)cccc2-n2nnn(C)c2=O)n1 [Present compound 77, 1-(2-{[1-(2-methylphenyl)-1H-pyrazole-3-yl]oxymethyl}-3-methylphenyl)-4-methyl-1,4-dihydrotetrazole-5-one]	100%	–	–
COc1ccccc1-n1ccc(OCc2c(C3CC3)cccc2-n2nnn(C)c2=O)n1 [Present compound 89, 1-(2-{[1-(2-methoxyphenyl)-1H-pyrazole-3-yl]oxymethyl}-3-cyclopropylphenyl)-4-methyl-1,4-dihydrotetrazole-5-one]	–	80%	–
COc1ccccc1-n1ccc(OCc2c(Cl)cccc2-n2nnn(C)c2=O)n1 [Present compound 86, 1-(2-{[1-(2-methoxyphenyl)-1H-pyrazole-3-yl]oxymethyl}-3-chlorophenyl)-4-methyl-1,4-dihydrotetrazole-5-one]	–	80%	100%
CCCCc1cccc(-n2nnn(C)c2=O)c1COc1ccn(-c2ccc(Cl)cc2)n1 [Present compound 38, 1-(2-{[1-(4-chlorophenyl)-1H-pyrazole-3-yl]oxymethyl}-3-butylphenyl)-4-methyl-1,4-dihydrotetrazole-5-one]	–	–	100%
Cc1cccc(-n2nnn(C)c2=O)c1COc1ccn(-c2c(F)c(F)c(F)c(F)c2F)n1 [Present compound 64, 1-(2-{[1-(2,3,4,5,6-pentafluorophenyl)-1H-pyrazole-3-yl]oxymethyl}-3-methylphenyl)-4-methyl-1,4-dihydrotetrazole-5-one]	–	–	100%
COc1cccc(-n2nnn(C)c2=O)c1COc1ccn(-c2ccc(Br)cc2)n1 [Present compound 49, 1-(2-{[1-(4-bromophenyl)-1H-pyrazole-3-yl]oxymethyl}-3-methoxyphenyl)-4-methyl-1,4-dihydrotetrazole-5-one]	–	80%	–
